Test results published in article PMC7556861.
Changes are numbered by the printed parent chain. Names and notes keep the numbering of the source. No constants are given. Whether binding was seen depends on the method and setting. In cells and extracts the contact can be indirect. Some results given as binding are weak or reduced against the parent protein; the word gives no strength. Sequences can lack the tags named with a protein. Blank lines part the entries; values can stand above or below the molecule they belong to.

By UniProt entry, the sequences of proteins in these tests, tags left out.
UniProt O95292: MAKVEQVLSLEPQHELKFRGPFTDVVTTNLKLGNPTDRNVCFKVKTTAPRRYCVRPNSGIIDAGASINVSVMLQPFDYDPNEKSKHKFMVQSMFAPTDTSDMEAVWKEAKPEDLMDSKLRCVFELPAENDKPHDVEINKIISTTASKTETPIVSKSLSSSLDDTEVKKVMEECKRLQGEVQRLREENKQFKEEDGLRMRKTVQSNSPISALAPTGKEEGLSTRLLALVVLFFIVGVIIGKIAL

Experiments:
HA-tagged MIGA1 (human) = biological target: T1, HA-tagged MIGA1 (human) (UniProt Q8NAN2); assay: co-IP; tagged proteins co-expressed in HeLa cells; lysis buffer 150 mM NaCl, 50 mM Tris-HCl pH 8.0, 1 mM EDTA, 0.5% Triton-100, with protease inhibitors and PhosSTOP; HA beads or antibody with Protein A Sepharose, 2-4 hr at 4°C; western blot
T1 sequence: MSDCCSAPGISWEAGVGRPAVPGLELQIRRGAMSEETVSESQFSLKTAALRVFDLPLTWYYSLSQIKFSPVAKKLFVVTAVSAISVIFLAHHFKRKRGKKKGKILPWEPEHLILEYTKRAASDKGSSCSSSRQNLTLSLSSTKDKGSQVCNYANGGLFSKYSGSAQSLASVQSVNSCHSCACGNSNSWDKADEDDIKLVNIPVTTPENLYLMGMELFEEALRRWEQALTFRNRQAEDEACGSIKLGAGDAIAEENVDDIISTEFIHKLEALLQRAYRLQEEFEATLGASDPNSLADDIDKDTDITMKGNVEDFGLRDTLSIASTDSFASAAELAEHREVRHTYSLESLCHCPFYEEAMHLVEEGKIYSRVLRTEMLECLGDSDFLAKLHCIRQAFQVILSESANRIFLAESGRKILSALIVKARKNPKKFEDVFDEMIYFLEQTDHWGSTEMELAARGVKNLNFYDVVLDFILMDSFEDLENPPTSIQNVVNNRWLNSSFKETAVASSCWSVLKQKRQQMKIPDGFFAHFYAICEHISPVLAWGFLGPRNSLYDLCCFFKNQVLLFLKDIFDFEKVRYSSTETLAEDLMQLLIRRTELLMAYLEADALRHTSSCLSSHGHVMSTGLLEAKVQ

[1] = biological target: T2, MIGA2-HA (human MIGA2, from pcDNA3.1-MIGA2-HA) (human) (UniProt Q7L4E1); assay: as above
T2 sequence: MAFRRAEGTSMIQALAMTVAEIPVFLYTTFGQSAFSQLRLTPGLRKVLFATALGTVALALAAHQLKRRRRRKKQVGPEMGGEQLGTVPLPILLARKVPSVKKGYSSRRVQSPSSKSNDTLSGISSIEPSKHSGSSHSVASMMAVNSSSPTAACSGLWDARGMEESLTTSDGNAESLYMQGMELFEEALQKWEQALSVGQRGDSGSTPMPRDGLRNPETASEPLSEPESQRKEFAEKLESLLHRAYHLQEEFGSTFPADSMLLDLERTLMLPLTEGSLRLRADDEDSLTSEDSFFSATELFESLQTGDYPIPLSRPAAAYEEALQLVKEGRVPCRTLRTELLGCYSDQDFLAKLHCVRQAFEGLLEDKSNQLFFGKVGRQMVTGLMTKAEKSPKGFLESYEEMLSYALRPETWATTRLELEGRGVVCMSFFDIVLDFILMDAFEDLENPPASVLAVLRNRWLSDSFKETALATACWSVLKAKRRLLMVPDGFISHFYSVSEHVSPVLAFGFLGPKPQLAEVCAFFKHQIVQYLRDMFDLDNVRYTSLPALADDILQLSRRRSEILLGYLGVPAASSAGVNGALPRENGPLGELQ

[2] = biological target: VAPB-V5 (human VAPB, from pcDNA3.1-VAPB-V5) (human) (UniProt O95292); assay: as above
[3] = biological target: T3, Miga gRes-HA (genomic rescue fragment of Miga with 3xHA) (Drosophila melanogaster) (UniProt Q9W3F7); assay: co-IP; tagged proteins co-expressed in S2 cells; lysis buffer 150 mM NaCl, 50 mM Tris-HCl pH 8.0, 10 mM NaF, 1 mM Na3VO4, 1% NP-40, 10% glycerol, 1.5 mM EDTA, with protease inhibitors and PhosSTOP; HA beads, Flag beads or V5 antibody with Protein A Sepharose, 2-4 hr at 4°C; western blot
T3 sequence: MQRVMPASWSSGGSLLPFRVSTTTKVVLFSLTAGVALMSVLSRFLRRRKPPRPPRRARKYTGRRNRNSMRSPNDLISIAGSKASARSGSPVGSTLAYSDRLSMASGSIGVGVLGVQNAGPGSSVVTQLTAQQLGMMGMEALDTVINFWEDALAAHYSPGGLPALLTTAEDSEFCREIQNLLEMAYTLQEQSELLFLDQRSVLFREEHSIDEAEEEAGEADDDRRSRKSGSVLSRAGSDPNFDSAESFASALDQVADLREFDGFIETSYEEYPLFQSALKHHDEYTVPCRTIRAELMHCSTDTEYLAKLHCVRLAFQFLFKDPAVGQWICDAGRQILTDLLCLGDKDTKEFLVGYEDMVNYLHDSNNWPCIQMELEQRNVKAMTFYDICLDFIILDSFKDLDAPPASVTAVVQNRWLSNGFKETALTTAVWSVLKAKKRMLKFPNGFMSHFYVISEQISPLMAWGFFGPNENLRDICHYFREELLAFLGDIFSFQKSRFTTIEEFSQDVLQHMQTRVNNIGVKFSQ

[4] = biological target: T4, Miga^FM-V5 (FFAT motif mutant form of Miga) (Drosophila melanogaster) (UniProt Q9W3F7); assay: as above
T4 sequence: T3 sequence with F247A, S249A

[5] = biological target: T5, Vap33-Flag (Drosophila Vap33, Flag-tagged, from pUAS Vap33-FLAG) (Drosophila melanogaster) (UniProt Q9W4N8); assay: as above
T5 sequence: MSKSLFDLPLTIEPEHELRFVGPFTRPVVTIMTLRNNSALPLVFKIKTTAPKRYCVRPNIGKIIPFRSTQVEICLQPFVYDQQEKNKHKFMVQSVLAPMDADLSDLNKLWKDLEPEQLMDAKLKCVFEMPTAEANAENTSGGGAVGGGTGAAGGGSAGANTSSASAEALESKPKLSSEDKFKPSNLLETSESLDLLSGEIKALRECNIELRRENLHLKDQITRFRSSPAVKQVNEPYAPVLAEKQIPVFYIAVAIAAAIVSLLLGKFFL

binding (HA-tagged MIGA1 (human)): no binding
binding [1]: binds
Molecule: VAPB-V5 (human VAPB, from pcDNA3.1-VAPB-V5) (from UniProt O95292 1-243)

binding [2]: no binding
B1: HA-tagged MIGA1 (protein, UniProt Q8NAN2 1-632)
chain: T1 sequence

binding [3]: binds
binding [4]: no binding
B2: Vap33-Flag (Drosophila Vap33, Flag-tagged, from pUAS Vap33-FLAG) (protein, UniProt Q9W4N8 1-269)
chain: T5 sequence

binding [5]: binds
B3: Miga gRes-HA (genomic rescue fragment of Miga with 3xHA) (protein, UniProt Q9W3F7 1-525)
chain: T3 sequence

binding [5]: no binding
B4: Miga^FM-V5 (FFAT motif mutant form of Miga) (protein, UniProt Q9W3F7 1-525)
chain: T3 sequence with F247A, S249A

binding [5]: no binding
B5: Miga^(S246A, S249A)-V5 (protein, UniProt Q9W3F7 1-525)
chain: T3 sequence with S246A, S249A
